Test results reported in a collection of fitness landscapes (doi:10.1126/science.1257360).
The other results are listed elsewhere or left out.

B1: PhoQ; a variant is named by its letters at X, in order, P23837 (parent)
chain: MKKLLRLFFPLSLRVRFLLATAAVVLVLSLAYGMVALIGYSVSFDKTTFRLLRGESNLFYTLAKWENNKLHVELPENIDKQSPTMTLIYDENGQLLWAQRDVPWLMKMIQPDWLKSNGFHEIEADVNDTSLLLSGDHSIQQQLQEVREDDDDAEMTHSVAVNVYPATSRMPKLTIVVVDTIPVELKSSYMVWSWFIYVLSANLLLVIPLLWVAAWWSLRPIEALAKEVRELEEHNRELLNPATTRELTSLVRNLNRLLKSERERYDKYRTTLTDLTHSLKTPLXXLQXXLRSLRSEKMSVSDAEPVMLEQISRISQQIGYYLHRASMRGGTLLSRELHPVAPLLDNLTSALNKVYQRKGVNISLDISPEISFVGEQNDFVEVMGNVLDNACKYCLEFVEISARQTDEHLYIVVEDDGPGIPLSKREVIFDRGQRVDTLRPGQGVGLAVAREITEQYEGKIVAGESMLGGARMEVIFGRQHSAPKDE

Variants of: B1
Test: enrichment ratio after two sorts for PhoP signalling (ratio (wild type AVST 3.29)); higher = more functional
Details: with PhoP (E. coli)

Row | Variant | enrichment ratio
1 | MWSV | ≤ 0.25
2 | WINA | ≤ 0.25
3 | GRYK | ≤ 0.25
4 | QFHR | ≤ 0.25
5 | VQTW | ≤ 0.25
6 | VRSD | ≤ 0.25
7 | FFQK | ≤ 0.25
8 | YYLI | ≤ 0.25
9 | SGWM | 9.28
10 | ITHD | ≤ 0.25
11 | DVHD | ≤ 0.25
12 | QYLR | ≤ 0.25
13 | KAKH | 6.08
14 | PRYC | ≤ 0.25
15 | LTLR | ≤ 0.25
16 | VYQD | ≤ 0.25
17 | LRIH | ≤ 0.25
18 | VWHE | ≤ 0.25
19 | TLWT | ≤ 0.25
20 | NARA | ≤ 0.25
21 | TACT | 8.24
22 | YIES | ≤ 0.25
23 | MQSF | ≤ 0.25
24 | GDEP | ≤ 0.25
25 | GNYM | ≤ 0.25

Row | Variant | enrichment ratio
26 | YSPY | ≤ 0.25
27 | RMSE | ≤ 0.25
28 | NLGN | ≤ 0.25
29 | QRMA | ≤ 0.25
30 | YWND | ≤ 0.25
31 | DMIM | ≤ 0.25
32 | EYKH | ≤ 0.25
33 | VTYE | ≤ 0.25
34 | AKQS | ≤ 0.25
35 | IRQV | ≤ 0.25
36 | MTWD | ≤ 0.25
37 | QQMD | ≤ 0.25
38 | SYYR | ≤ 0.25
39 | WRYE | ≤ 0.25
40 | PFGY | ≤ 0.25
41 | SIAI | 11.6
42 | YVYH | ≤ 0.25
43 | RALF | ≤ 0.25
44 | IEAR | ≤ 0.25
45 | LGYW | ≤ 0.25
46 | GKFS | ≤ 0.25
47 | KTCD | ≤ 0.25
48 | FKLA | ≤ 0.25
49 | ETSD | ≤ 0.25
50 | AKRN | ≤ 0.25

Row | Variant | enrichment ratio
51 | DGGY | ≤ 0.25
52 | DLHC | ≤ 0.25
53 | EASR | ≤ 0.25
54 | HLHQ | ≤ 0.25
55 | PLGY | ≤ 0.25
56 | QHEH | ≤ 0.25
57 | PGRR | ≤ 0.25
58 | ITVA | ≤ 0.25
59 | MSHF | 2.07
60 | DMQY | ≤ 0.25
61 | YKEK | ≤ 0.25
62 | HRAL | ≤ 0.25
63 | PKIS | ≤ 0.25
64 | NSNN | ≤ 0.25
65 | LHMP | ≤ 0.25
66 | TIRA | ≤ 0.25
67 | SAIW | ≤ 0.25
68 | AVCE | ≤ 0.25
69 | NASR | ≤ 0.25
70 | WMSI | ≤ 0.25
71 | QIGR | ≤ 0.25
72 | DRYW | ≤ 0.25
73 | NANF | ≤ 0.25
74 | ELKY | ≤ 0.25
75 | LGLM | 6.93

Row | Variant | enrichment ratio
76 | LAWC | ≤ 0.25
77 | IAFW | ≤ 0.25
78 | WRDC | ≤ 0.25
79 | LTCQ | ≤ 0.25
80 | GLIT | ≤ 0.25
81 | ECWR | ≤ 0.25
82 | CWVK | ≤ 0.25
83 | ATPS | ≤ 0.25
84 | VIIH | ≤ 0.25
85 | FERS | ≤ 0.25
86 | NQRG | ≤ 0.25
87 | FPRV | ≤ 0.25
88 | DDAS | ≤ 0.25
89 | AWTE | ≤ 0.25
90 | NCAW | ≤ 0.25
91 | QMNH | ≤ 0.25
92 | QRTD | ≤ 0.25
93 | PDKI | ≤ 0.25
94 | AYGY | ≤ 0.25
95 | EEIS | ≤ 0.25
96 | AYLS | ≤ 0.25
97 | RPNS | ≤ 0.25
98 | FCRG | ≤ 0.25
99 | LVYA | ≤ 0.25
100 | LRWC | ≤ 0.25

Row | Variant | enrichment ratio
101 | TCNY | 9.63
102 | DNAA | ≤ 0.25
103 | DYHR | ≤ 0.25
104 | IAIA | ≤ 0.25
105 | IMYD | ≤ 0.25
106 | FNFM | ≤ 0.25
107 | KHIW | ≤ 0.25
108 | QCYY | ≤ 0.25
109 | ATNT | ≤ 0.25
110 | DKFH | ≤ 0.25
111 | FIWK | ≤ 0.25
112 | GNMS | 9.1
113 | VFVE | ≤ 0.25
114 | KTSY | ≤ 0.25
115 | KHWL | ≤ 0.25
116 | MVWV | ≤ 0.25
117 | FTLE | 5.91
118 | SSCK | 4.35
119 | MCMC | ≤ 0.25
120 | RANK | ≤ 0.25
121 | FCIT | ≤ 0.25
122 | AGPG | ≤ 0.25
123 | KMIV | ≤ 0.25
124 | YEWM | ≤ 0.25
125 | QVRQ | ≤ 0.25

Row | Variant | enrichment ratio
126 | TTPS | ≤ 0.25
127 | HQSC | ≤ 0.25
128 | FQDW | ≤ 0.25
129 | MYLR | ≤ 0.25
130 | MLCV | ≤ 0.25
131 | RPWG | ≤ 0.25
132 | AYQD | ≤ 0.25
133 | YAMW | ≤ 0.25
134 | TSSM | 24.4
135 | RPDD | ≤ 0.25
136 | SVVR | 2.5
137 | WMAW | ≤ 0.25
138 | GDNG | ≤ 0.25
139 | TRNF | ≤ 0.25
140 | AKNC | ≤ 0.25
141 | GWNG | ≤ 0.25
142 | RFLK | ≤ 0.25
143 | PVMF | ≤ 0.25
144 | WSLR | ≤ 0.25
145 | PRAE | ≤ 0.25
146 | ANSS | 12.7
147 | NDCS | ≤ 0.25
148 | NKAG | ≤ 0.25
149 | DLNP | ≤ 0.25
150 | QPFY | ≤ 0.25

Row | Variant | enrichment ratio
151 | EAVE | ≤ 0.25
152 | RFFI | ≤ 0.25
153 | TSCC | 17.3
154 | WVAW | ≤ 0.25
155 | LNEE | ≤ 0.25
156 | SLEW | ≤ 0.25
157 | KFRH | ≤ 0.25
158 | WECW | ≤ 0.25
159 | SPDF | ≤ 0.25
160 | WSKT | ≤ 0.25
161 | WKMN | ≤ 0.25
162 | TCIA | ≤ 0.25
163 | VAHI | ≤ 0.25
164 | ILWM | ≤ 0.25
165 | FTEN | ≤ 0.25
166 | YYDL | ≤ 0.25
167 | LQYA | ≤ 0.25
168 | YSHR | 1.38
169 | YIRS | ≤ 0.25
170 | TVYS | ≤ 0.25
171 | EYTR | ≤ 0.25
172 | PTYD | ≤ 0.25
173 | DVTP | ≤ 0.25
174 | FVKY | ≤ 0.25
175 | YQDC | ≤ 0.25

Row | Variant | enrichment ratio
176 | FVIM | ≤ 0.25
177 | YLQG | ≤ 0.25
178 | MSIQ | ≤ 0.25
179 | ICNV | ≤ 0.25
180 | YLVC | 0.277
181 | SWTG | ≤ 0.25
182 | MDKM | ≤ 0.25
183 | TAIM | ≤ 0.25
184 | IQCH | ≤ 0.25
185 | FFNV | 1.49
186 | GFIW | ≤ 0.25
187 | RPYE | ≤ 0.25
188 | VLRD | ≤ 0.25
189 | HQMI | ≤ 0.25
190 | VMCF | ≤ 0.25
191 | TLFD | ≤ 0.25
192 | GKHL | ≤ 0.25
193 | KVFS | ≤ 0.25
194 | NDVG | ≤ 0.25
195 | EEVS | ≤ 0.25
